Laboratory results reported in PubChem BioAssay AID624417 (National Center for Advancing Translational Sciences (NCATS), 2012).
About 6,400 (1.6%) of roughly 410,000 compounds were called active. Inconclusive means that the source gave no clear call. Such entries were picked first, then a sample of the others. The call rests on the fitted dose curve; in most records, active means well fitted inhibition curve with a large enough effect; inconclusive means small, poorly fitted or top-dose-only effect; inactive means no such curve, though single readings can be large or run the other way. Potencies of inconclusive entries are left out as doubtful fits.

biological target: Glucagon-like peptide 1 receptor (Homo sapiens) (UniProt P43220); experiment: qHTS of GLP-1 Receptor Inverse Agonists (Inhibition Mode); conditions: HEK293 GLP-1R CRE-luciferase, luminescence, 24 h; Potency: GLP-1R form is constitutively active unless noted; series mostly up to 38.3 µM; further: nearly all actives have a fitted effect of over 55% in size
Chain of UniProt P43220 (P43220 whole entry, looked up): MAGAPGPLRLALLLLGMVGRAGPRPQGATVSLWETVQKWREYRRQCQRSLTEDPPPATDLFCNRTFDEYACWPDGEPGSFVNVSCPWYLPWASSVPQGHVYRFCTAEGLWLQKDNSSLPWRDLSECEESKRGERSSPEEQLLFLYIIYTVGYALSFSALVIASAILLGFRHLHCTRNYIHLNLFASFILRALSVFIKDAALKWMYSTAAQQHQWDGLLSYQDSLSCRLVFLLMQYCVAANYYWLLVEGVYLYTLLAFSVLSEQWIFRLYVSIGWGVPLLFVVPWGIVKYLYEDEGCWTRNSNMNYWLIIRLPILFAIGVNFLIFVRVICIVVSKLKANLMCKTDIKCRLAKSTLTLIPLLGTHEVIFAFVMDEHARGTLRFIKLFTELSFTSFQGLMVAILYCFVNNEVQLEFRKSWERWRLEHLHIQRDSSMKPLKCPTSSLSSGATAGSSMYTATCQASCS
Method in brief: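 Seeding at 200 cells/uL, 12 h culture, 24 hr compound treatment, then luciferase reagent and a luminescence read; cells are HEK293 stably expressing a constitutively active GLP-1R plus cAMP-responsive luciferase.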
Potency means the concentration at half of the fitted maximal effect; tags describe the fitted curve by direction and shape.

SMILES | Potency
Cc1ccc(S(=O)(=O)Oc2ccccc2C=C2C(=O)N(C)C(=O)N(C)C2=O)cc1 | inconclusive [inhibitor, single point]
C[N+](C)(C)CC1CCCC(C[N+](C)(C)C)C1=O (configuration not stated) | inconclusive [inhibitor, single point]
CN(C)CCCOc1nn(Cc2ccccc2)c2ccccc12 | inconclusive [inhibitor, partial curve, poor fit]
O=C(CCS(=O)(=O)c1ccc(Br)cc1)N1CCC2(CC1)OCCO2 | inactive
Cc1c(C=C2C(=O)N(C)C(=S)N(C)C2=O)c2ccccc2n1CC(=O)NCC1CCCO1 (configuration not stated) | inactive
CN(C)c1ccc(C=C2C(=O)NC(=S)NC2=O)cc1 | inactive
COC(=O)C1=C(c2cccc(OCc3ccccc3)c2)C[C@@H]2CC[C@H]1N2C(=O)NCCCOC(C)C | inconclusive [inhibitor, partial curve, poor fit]
O=C(COc1ccc(Cl)cc1)N1CCN(Cc2ccc([N+](=O)[O-])cc2)CC1 | inconclusive [inhibitor, partial curve, poor fit]
O=C(C(=O)N1CCN(Cc2ccccc2)CC1)c1c[nH]c2ccccc12 | inconclusive [inhibitor, single point]
CC(Cc1ccccc1Sc1ccc(O)cc1)N(C)C (configuration not stated) | inconclusive [inhibitor, partial curve, poor fit]
NC(N)=N/N=C/c1ccc(N(c2ccccc2)c2ccccc2)cc1 | inconclusive [inhibitor, partial curve, poor fit]
CCOc1ccc(C(=O)Nc2cccc(C(=O)OCc3cc(=O)n4nc(C5CC5)sc4n3)c2)cc1 | inconclusive [inhibitor, full curve, poor fit]
COc1ccc(S(=O)(=O)NC(CC(=O)N2CCC3(CC2)OCCO3)c2ccco2)cc1 (configuration not stated) | inactive
COC(=O)[C@@H]1N=C(c2ccc(OC)cc2)O[C@]12C(=O)N(Cc1ccccc1)c1ccccc12 | inconclusive [inhibitor, partial curve, poor fit]
CCCCCCCCN1C(=O)[C@H](CC(=O)N2CCCCC2)C[C@@]2(C(=O)OCC)CCCC=C12 | inconclusive [inhibitor, partial curve]
O=C1C(=O)c2ccccc2-c2ccccc21 | inconclusive [inhibitor, full curve, poor fit]
Cc1cc(C)c(NC2=NCCCS2)c(C)c1 | inconclusive [inhibitor, partial curve, poor fit]
Oc1cc2c(cc1CN1CCN(c3ccccc3F)CC1)OCO2 | inconclusive [inhibitor, single point]
CCCC(=O)Nc1ccc(N2CCN(CC)CC2)c(Cl)c1 | inconclusive [inhibitor, single point]
C=C1C(=O)O[C@@H]2C[C@@H](C)[C@@H]3C=CC(=O)[C@@]3(C)[C@@H](OC(=O)CC(=O)O[C@H]3[C@@H]4C(=C)C(=O)O[C@@H]4C[C@@H](C)[C@@H]4C=CC(=O)[C@]43C)[C@H]12 | inactive
CCOc1cc(CN2CCN(C(=O)Cc3ccccc3)CC2)ccc1OC | inactive

SMILES | Potency
COc1ccc(-c2ccc(OC)c(OC)c2OC)cc1 | inconclusive [inhibitor, partial curve, poor fit]
CC(=O)N(C1=NCCCS1)c1ccccc1Cl | inconclusive [inhibitor, single point]
O=C1NC(=S)NC(=O)C1=Cc1cccn1-c1ccc(O)cc1 | inconclusive [inhibitor, single point]
O=C(Nc1ccc2nc(-c3cccs3)c(-c3cccs3)nc2c1)NC1CC1 | inconclusive [inhibitor, partial curve, poor fit]
O=C(c1cc(C(=O)NCc2ccccc2)c(=O)n(Cc2ccccc2)c1)c1cc(Br)ccc1O | inconclusive [inhibitor, partial curve, poor fit]
COc1ccc(CN2CCCC(C(=O)c3sccc3C)C2)cc1O (configuration not stated) | inconclusive [inhibitor, partial curve]
CC1CCc2c(sc3nc(CSc4n[nH]c(N)n4)[nH]c(=O)c23)C1 (configuration not stated) | inactive
COC1=C(C)C(=O)C2=C(C1=O)C(CO)N1C(C#N)C3CC4C(C1C2N1CCOC41)N3C (configuration not stated) | inconclusive [inhibitor, full curve, poor fit]
Cc1nc2c(=O)n(C)c(=O)nc-2n(C)n1 | inactive
O=c1[nH]c2ccccc2n1C1CCN(C(c2ccnc3ccccc23)c2nnnn2Cc2ccccc2)CC1 (configuration not stated) | inconclusive [inhibitor, partial curve, poor fit]
Brc1ccc(CN2CCNCC2)s1 | inconclusive [inhibitor, partial curve, poor fit]
CCCCn1c(=O)c(C(=O)NCc2ccncc2)c(O)c2ccccc21 | inconclusive [inhibitor, single point]
CCN(CC)C(=O)c1ccc(NC(=O)CCCSc2ccccc2)cc1 | inconclusive [inhibitor, single point]
COC(=O)C1=C(c2ccc(F)cc2OCc2ccccc2)C[C@@H]2CC[C@H]1N2C(=O)NCc1ccccc1Cl | inconclusive [inhibitor, partial curve, poor fit]
O=Cc1cn(Cc2ccc(Br)cc2)c2ccccc12 | inconclusive [inhibitor, full curve, poor fit]
O=C(Cc1ccccc1)N1CCN(Cc2ccccc2Cl)CC1 | inconclusive [inhibitor, partial curve, poor fit]
CCOP(=O)(OCC)c1nc(-c2cccc3ccccc23)oc1NCCc1ccc(OC)cc1 | inconclusive [inhibitor, single point]
CCCNS(=O)(=O)c1ccc(OCC(=O)N2CCN(Cc3ccc4c(c3)OCO4)CC2)c(C)c1 | inconclusive [inhibitor, partial curve, poor fit]
OC(c1ccncc1)(c1ccc(F)cc1)c1ccc(F)cc1 | inconclusive [inhibitor, partial curve]
Oc1ccc2c3c1OC1c4[nH]c5ccccc5c4C[C@@]4(O)C(C2)N(CC2CC2)CC[C@]314 (some centres not stated) | inconclusive [inhibitor, single point]
CSc1ccc(CN2CCC2(C)C(=O)Nc2cccc(NS(C)(=O)=O)c2)cc1 (configuration not stated) | inconclusive [inhibitor, single point]

SMILES | Potency
COc1cc2c(c(OC)c1OC)-c1ccc(O)cc1C(NC(C)=O)CC2 (configuration not stated) | inactive
COC(=O)C1=C(c2ccc(OCc3ccccc3)cc2)C[C@@H]2CC[C@H]1N2C(=O)NCc1ccc(OC)cc1 | inconclusive [inhibitor, partial curve, poor fit]
CC(C)Oc1ccc(NC(=O)c2cc3ccccc3o2)cc1 | inconclusive [inhibitor, partial curve]
Cc1ccc2c(c1)C1CN(C)CCC1N2C(=O)c1ccccc1NS(=O)(=O)c1cccc(C(F)(F)F)c1 (configuration not stated) | inconclusive [inhibitor, partial curve, poor fit]
CCN1CCN(Cc2ccc(C)cc2)CC1 | inactive
Cc1cc(C)cc(NC(=O)CN2C(=O)CN=C(c3ccccc3)c3cc(Cl)ccc32)c1 | inconclusive [inhibitor, partial curve, poor fit]
CCc1ccccc1Nc1nn2c(=O)c3ccc(C(=O)Nc4cc(C)cc(C)c4)cc3nc2s1 | inconclusive [inhibitor, single point]
Cc1cccc(C)c1-n1nnnc1C(c1cc2ccccc2o1)N1CCC(n2c(=O)[nH]c3ccccc32)CC1 (configuration not stated) | inconclusive [inhibitor, partial curve, poor fit]
CCCCn1c(=O)c(C(=O)Nc2ncccc2C)c(O)c2ccccc21 | inconclusive [inhibitor, full curve]
CC1=NN(c2ccccc2)C(=O)/C1=C/c1c(O)[nH]c(=O)[nH]c1=O | inactive
Cc1cccc(CN2CCCC(C(=O)c3ccc4c(c3)OCO4)C2)n1 (configuration not stated) | inconclusive [inhibitor, single point]
N#CC(C#N)=Cc1ccc(C=C(C#N)C#N)cc1 | inactive
CCCOP(=O)(OCCC)C1(Nc2ccc(C)cc2)CCCCC1 | inconclusive [inhibitor, single point]
CCC(=O)C(CCN1CCOCC1)(c1ccccc1)c1ccccc1 | inconclusive [inhibitor, full curve, poor fit]
CCCCn1c(C)c(C(=O)OCC)c2c(CN3CCCC3)c(O)ccc21 | inconclusive [inhibitor, single point]
CN(C)C(=O)Oc1ccc(-c2cn3cc(Cl)ccc3n2)cc1 | inconclusive [inhibitor, partial curve]
COc1ccccc1N1CCN(Cc2cccc(Br)c2)CC1 | inconclusive [inhibitor, single point]
CSc1ncc(CN2CCCC(C(=O)c3sccc3C)C2)cn1 (configuration not stated) | inactive
CCCCOP(=O)(OCCCC)C(O)c1ccc(Br)cc1 (configuration not stated) | inconclusive [inhibitor, partial curve, poor fit]
Cc1ccc(N2C(=O)NC(=O)/C(=C/C=C/c3ccco3)C2=O)cc1 | inconclusive [inhibitor, single point]
